Test results reported in PubChem BioAssay AID1671194 (National Center for Advancing Translational Sciences (NCATS), 2021).
Out of some 140,000 compounds screened, about 240 (0.17%) were called active. This list was built around the results that the source calls inconclusive (neither active nor inactive); the mix of calls is not that of the screen. The call rests on the fitted dose curve; in most records, active means well fitted inhibition curve with a large enough effect; inconclusive means small, poorly fitted or top-dose-only effect; inactive means no such curve, though single readings can be large or run the other way. Potencies of inconclusive entries are doubtful fits and often do not repeat.

Test: Primary qHTS assay for inhibitors of alpha-synuclein gene (SNCA) expression; further: nearly all actives have a fitted effect of over 45% in size
Details: HEK-293 SNCA-luciferase knock-in, luminescence, 24 h; series mostly up to 57.2 µM
Potency means the concentration at half of the fitted maximal effect; tags describe the fitted curve by direction and shape.

Potency, inactive:
COc1cccc(CN2CCC3(CC2)c2[nH]c4ccccc4c2CCN3C)c1
O=C(O)C1c2nc[nH]c2CCN1C(=O)CCCn1ccnc1 (centres undefined)
CN1CCC(Cn2ccc3c(N4CCOCC4)nc(-c4cccc(C(N)=O)c4)cc32)CC1
Cc1ccsc1-c1[nH]nc2ncc(-c3ccc(F)cc3)nc12
O=C(c1cccnc1N1CC2CC(C1)[C@H]1CCCC(=O)N1C2)N1CC=C(c2ccccc2)CC1 (some centres undefined)
O=C(O)CCC(=O)N[C@H]1CCN2C(=O)c3cc(-c4cccs4)ccc3NC(=O)[C@H]12
CN1CC2(CCN(C(=O)CC3CCCC3)CC2)CC1CN1CCOCC1 (centres undefined)
COc1ccc(Cl)cc1NC(=O)Cn1c(N2CCN(c3ccccc3)CC2)nc(C)cc1=O
COc1ccc2[nH]c(=O)c(CCC(=O)O)cc2c1
COCCNC(=O)c1ccc(CC2CCN(C(=O)c3n[nH]c(=O)c4ccccc34)CC2)cc1
O=C(NC1CCCCC1)c1ccc2nnc(C3CC3)n2c1

Potency, inconclusive:
CCCC(=O)OCc1cnc(C)c2oc(=O)c(C(=O)Nc3cccc(C(F)(F)F)c3)cc12 3.55 µM [inhibitor, single point]
O=C(Nc1cc(F)ccc1Cl)c1cc2n(n1)CC(c1ccc(Br)cc1)OC2 (centres undefined) 3.16 µM [inhibitor, single point]
O=C(NC1C[C@H]2CC[C@@H](C1)N2C(=O)Cc1ccccc1Cl)c1ccncc1 (some centres undefined) 20 µM [inhibitor, partial curve, poor fit]
NC(=O)[C@@H]1CCCN1CC[C@H]1CN(C(=O)C2CCCCC2)CC[C@H]1CC(=O)O 8.91 µM [inhibitor, full curve]
Cc1c(Cl)cccc1NC(=O)CSc1nc(=O)n(Cc2ccco2)c2c1CCC2 20 µM [inhibitor, partial curve, poor fit]
Cc1ccc2[nH]c(=O)c3cc(C(=O)NC4CCC(C)CC4)sc3c2c1 (centres undefined) 8.91 µM [inhibitor, partial curve, poor fit]
O=C(NCCc1cccs1)C1CCN(C(=O)c2ncn3c2COC(c2ccc(F)cc2)C3)CC1 (centres undefined) 2.24 µM [inhibitor, partial curve, poor fit]
CN(C)c1ccc(CNC(=O)C2CCN(Cc3cc4ccccc4n3Cc3ccccc3)CC2)cc1 35.5 µM [inhibitor, single point]
COc1ccc(C(=O)NCc2ccc3c(c2)CCN3C(=O)c2ccc(F)cc2)cc1 5.01 µM [inhibitor, partial curve]
COc1ccccc1CNC(=O)COCc1cc(-c2ccc3c(c2)OCO3)on1 7.08 µM [inhibitor, single point]
COc1cccc(CNS(=O)(=O)c2c(C(=O)N3CCC(C)CC3)c(C)n(C)c2C)c1 12.6 µM [inhibitor, single point]
CNC(=O)N1CCC(N2C(=O)C3(CCCCC3)C2c2ccccc2)CC1 (centres undefined) 25.1 µM [inhibitor, single point]
CCOc1ccccc1NC(=O)C1CCCN1S(=O)(=O)c1ccc2nc(-c3ccccc3)[nH]c2c1 (centres undefined) 25.1 µM [inhibitor, partial curve, poor fit]
CN(C)CCc1c[nH]c2ccc(C[C@H]3COC(=O)N3)cc12 42.9 µM [inhibitor, single point]
COc1ccc(-c2cc3nc4c(c(=O)n3[nH]2)CN(C(=O)CCCc2nc3ccccc3s2)CC4)cc1 10 µM [inhibitor, partial curve, poor fit]
Cc1cc(NC(=O)CN2C(=O)NC(c3ccc(Cl)cc3)C3=C2COC3=O)ccc1Br (centres undefined) 39.8 µM [inhibitor, single point]
Cc1ccc2occ(CC(=O)Nc3ccc(S(=O)(=O)N4CCC(C)CC4)cc3)c2c1 35.5 µM [inhibitor, single point]
CO[C@H]1C(=O)N(C2CCN(Cc3cccc(C)c3)CC2)[C@H]1c1ccncc1 8.91 µM [inhibitor, single point]
O=C(C1CCCN1[S+](=O)([O-])c1ccccc1)N1CCC(N2CCCC2=O)CC1 (centres undefined) 25.1 µM [inhibitor, partial curve, poor fit]
COc1ccc(S(=O)(=O)N2CCC(C(=O)Nc3cc(C(F)(F)F)ccc3Cl)CC2)cc1 31.6 µM [inhibitor, single point]
CCO[C@H]1CN(C(=O)COc2ccc(Cl)cc2C)C[C@@H]1O 3.55 µM [inhibitor, partial curve, poor fit]
CCCOc1ccc(-c2cc(C(F)(F)F)c(C#N)c(SCCC(=O)O)n2)cc1 7.08 µM [inhibitor, single point]
CC(C)n1cc(CN2CCC(Oc3ccc(C(=O)NC4CCCC4)cc3Cl)CC2)cn1 22.4 µM [inhibitor, partial curve, poor fit]
CS(=O)(=O)N1C[C@@H](Oc2ccccc2)C[C@H]1C(=O)N1CCCC1 5.62 µM [inhibitor, full curve, poor fit]
Cc1ccc(-c2cccc(CN3CCCC(N[S+](=O)([O-])c4c(C)noc4C)C3)c2)cc1Cl (centres undefined) 2.82 µM [inhibitor, partial curve, poor fit]
Cc1ccc(N2CCN(C(=O)c3c(C)oc4ncnc(N5CCCCC5)c34)CC2)c(C)c1 31.6 µM [inhibitor, single point]
O=C(Cc1ccccc1)N1CCC2(CC1)CN(c1ncccn1)CC2CO (centres undefined) 11.2 µM [inhibitor, partial curve, poor fit]
CC(C)c1ccc(NC(=O)N2CCN(c3ccc(Cl)c(Cl)c3)CC2)cc1 31.6 µM [inhibitor, partial curve, poor fit]
